Data taken from patent publication US5693476 (The Board of Trustees of the Leland Stanford Junior …, dated 1997).

Molecular target: syntaxin 1A amino-terminal domain (amino acids 4-193), recombinant (rat)
Assay: SPR (BIAcore), syntaxin 1A amino-terminal domain immobilized, FIG. 10B

B1: syntaxin 1A carboxyl-terminal domain ([…]), soluble recombinant (other)
chain: not shown
- Kd: 4.1 µM
- koff: 0.009 s⁻¹
- kon: 2200 M⁻¹ s⁻¹
